For the assay, the system named is MIWI (PIWIL1) piRISC loaded with L1MC piRNA (30 nt). The experiment in a line: pre-steady-state target cleavage rate (min^-1); MIWI and MILI are mouse PIWI proteins and EfPiwi is from a freshwater sponge; tags in brackets are library labels; higher = faster piRNA-guided slicing of the target. The following applies: guide: L1MC piRNA 5'p-UAACUAAAUACUAUGCAAGCUGUAGGUCCU
The method, boiled down:
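In Cleave-'n-Seq, a transcribed, DNA-blocked target RNA library (0.1 nM) was combined with 1 nM active affinity-purified piRISC bearing one synthetic guide, with or without 500 nM GTSF1 partner protein. Reactions ran in HEPES–potassium acetate buffer at 33 °C for 0–8 or 0–960 min. Uncleaved targets were sequenced and normalised to depth and to weakly complementary targets, three trials were pooled, and k3 was capped at 0.0001 min^-1. The pre-steady-state cleavage rate was obtained by fitting a burst-and-steady-state model.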

Setting [1] is: auxiliary factor: 500 nM mouse GTSF1.
The mark [2] stands for this setting: auxiliary factor: none (no GTSF1).

± gives the standard deviation. This is a selection; strong and weak results do not stand in their true shares.

Consider UCCUCCUACAGCUUGCAUAGUUUUUAGUUA, for which the “pre-steady-state target cleavage rate” value under setting [1] was determined as 0.376 ± 0.025 and the “pre-steady-state target cleavage rate” value under setting [2] turned out to be 0.0278 ± 0.0055.

As for UCCACCUACAGCUUCGCAUAGUAUUUAGUUA, the “pre-steady-state target cleavage rate” value amounted to 0.911 ± 0.056 under setting [1] and 0.0118 ± 0.0027 under setting [2].

UCCUGGAUGAGCAUGCAUAGUAUUUAGUAA: the “pre-steady-state target cleavage rate” value by setting is: under setting [1], 0.356 ± 0.046; under setting [2], 0.00617 ± 0.0035.

For UCCUGGUACAGCAUGCAUAGUAUAUAGUUA, the “pre-steady-state target cleavage rate” value runs as follows: under setting [1], 0.559 ± 0.07; under setting [2], 0.0113 ± 0.003.

Turning to UCCUGCAACAGCAUGCAUAGUAUUUAGUUA, the “pre-steady-state target cleavage rate” value is, setting by setting: under setting [1], 1.36 ± 0.087; under setting [2], 0.0331 ± 0.0088.

Turning to UCCUGGAACAGCAUGCAUUGUAUUUAGUUA, the “pre-steady-state target cleavage rate” value is, setting by setting: under setting [1], 0.648 ± 0.033; under setting [2], 0.0146 ± 0.0042.

Take UCCACCUACUCCUUGCAUAGUAUUUAGUUA: the “pre-steady-state target cleavage rate” value came out at 0.991 ± 0.034 under setting [1] and 0.043 ± 0.0071 under setting [2].

In the case of UCCUGGAUCAGCUUGCAUAGUAUUUACAAA, the “pre-steady-state target cleavage rate” value runs as follows: under setting [1], 0.292 ± 0.031; under setting [2], 0.00512 ± 0.003.

As to UCCUGGUAGAGCUAGCAUAGUAUUUAGUUA, the “pre-steady-state target cleavage rate” value reads like this: under setting [1], 0.569 ± 0.034; under setting [2], 0.0102 ± 0.0035.

On to UCCUGGAACAGCAUGCAUAGUAUUUUGUUA, for which the “pre-steady-state target cleavage rate” value amounted to 0.499 ± 0.039 under setting [1] and 0.014 ± 0.0043 under setting [2].

For UCGACCUACAGCUGGCAUAGUAUUUAGUUA, the “pre-steady-state target cleavage rate” value was 1.31 ± 0.049 under setting [1] and 0.0512 ± 0.011 under setting [2].

With UCGACCUACUGCAUGCAUAGUAUUUAGUUA, the “pre-steady-state target cleavage rate” value stood at 1.33 ± 0.056 under setting [1] and 0.0324 ± 0.0055 under setting [2].

In the case of UCCUGCUACAGCUUGGCAUAGUAUUUAGUUA, the “pre-steady-state target cleavage rate” value is, setting by setting: under setting [1], 0.62 ± 0.096; under setting [2], 0.00705 ± 0.0022.

Consider AGGACCUACAGCUUGCAUAGAUUUUAGUUA, for which the “pre-steady-state target cleavage rate” value under setting [1] was 0.19 ± 0.022 and the “pre-steady-state target cleavage rate” value under setting [2] worked out at 0.0089 ± 0.0041.

As for UCCUCCUACAGCUUGCUUAGUAUUAAGUUA, the “pre-steady-state target cleavage rate” value worked out at 0.264 ± 0.027 under setting [1] and 0.00647 ± 0.0019 under setting [2].

UCGACCUACACCUUGCAUAGUAUUUAGUUA: the “pre-steady-state target cleavage rate” value runs as follows: under setting [1], 1.15 ± 0.046; under setting [2], 0.0525 ± 0.008.

On to UCCUCCUACUGCUUGCAUAGAAUUUAGUUA, for which the “pre-steady-state target cleavage rate” value is, setting by setting: under setting [1], 0.323 ± 0.021; under setting [2], 0.0163 ± 0.0047.

Regarding UCCUGGAUCAGCUUGCAUAGAAUUAAGUUA, the “pre-steady-state target cleavage rate” value by setting is: under setting [1], 0.0685 ± 0.0098; under setting [2], 0.00717 ± 0.0037.

Consider UCCUGGAUGAGCUUUCAUAGUAUUUAGUUA, for which the “pre-steady-state target cleavage rate” value is 0.312 ± 0.029 under setting [1] and 0.00672 ± 0.002 under setting [2].

Turning to UCCUGCUACUGCUUGCAUAGUAUUUUGUUA, the “pre-steady-state target cleavage rate” value came to 0.558 ± 0.034 under setting [1] and 0.0284 ± 0.0045 under setting [2].

Take UCCUGGAUGUCCUUGCAUAGUAUUUCGUUA: the “pre-steady-state target cleavage rate” value under setting [1] turned out to be 0.0663 ± 0.014 and the “pre-steady-state target cleavage rate” value under setting [2] came to 0.00618 ± 0.0018.

Take UCCACCUACAGCUUGCAUAGUCUUUAGUUA: the “pre-steady-state target cleavage rate” value under setting [1] was 0.341 ± 0.035 and the “pre-steady-state target cleavage rate” value under setting [2] amounted to 0.0227 ± 0.0043.

Regarding UCGACCUACAGCUUGCAUAGUAUAUUAGUUA, the “pre-steady-state target cleavage rate” value under setting [1] was 1.25 ± 0.049 and the “pre-steady-state target cleavage rate” value under setting [2] is 0.0248 ± 0.0063.

As to UGGACCUACAGCUUGGAUAGUUUUUAGUUA, the “pre-steady-state target cleavage rate” value is 0.381 ± 0.017 under setting [1] and 0.0324 ± 0.0074 under setting [2].

As for UCCUGGAUCAGCUUGCUUAGUAUAUAGUUA, the “pre-steady-state target cleavage rate” value by setting is: under setting [1], 0.323 ± 0.031; under setting [2], 0.0142 ± 0.0043.

UCCUGGAACAGGUUGCAUAGUAUUUAGAUA: the “pre-steady-state target cleavage rate” value is, setting by setting: under setting [1], 0.344 ± 0.052; under setting [2], 0.0065 ± 0.0021.

Consider ACGACCUACAGCAUGCAUAGUAUUUAGUUA, for which the “pre-steady-state target cleavage rate” value under setting [1] stood at 1.43 ± 0.053 and the “pre-steady-state target cleavage rate” value under setting [2] amounted to 0.082 ± 0.021.

Turning to UGGACCUACAGCUUGCAGAGUAUUUAGUUA, the “pre-steady-state target cleavage rate” value was determined as 0.87 ± 0.066 under setting [1] and 0.0374 ± 0.009 under setting [2].

As for UCGACCUUCAGCUAGCAUAGUAUUUAGUUA, the “pre-steady-state target cleavage rate” value under setting [1] stood at 1.16 ± 0.064 and the “pre-steady-state target cleavage rate” value under setting [2] stood at 0.0256 ± 0.0053.

Regarding UCCUGGAUGUCCUUGCAUAGUAUUUAGUGA, the “pre-steady-state target cleavage rate” value was 0.11 ± 0.018 under setting [1] and 0.00937 ± 0.0023 under setting [2].

Consider ACGACCUACAGCUUGCAUAGUAUUAAGUUA, for which the “pre-steady-state target cleavage rate” value is, setting by setting: under setting [1], 0.678 ± 0.029; under setting [2], 0.0377 ± 0.0092.

Turning to UCGACCUACUGCUUGCUUAGUAUUUAGUUA, the “pre-steady-state target cleavage rate” value runs as follows: under setting [1], 1.52 ± 0.061; under setting [2], 0.031 ± 0.0067.

As for UCCUCCUACAGCUAGCAUAGUAAUUAGUUA, the “pre-steady-state target cleavage rate” value runs as follows: under setting [1], 0.431 ± 0.033; under setting [2], 0.00456 ± 0.0022.

Regarding UCCUGGUACAGCUUGCAUAGUAGUUAGUUA, the “pre-steady-state target cleavage rate” value came out at 0.433 ± 0.051 under setting [1] and 0.0224 ± 0.0045 under setting [2].

Take UCCUGGAUCAGCUUGCAUAGUAUUUAGUAUA: the “pre-steady-state target cleavage rate” value was 0.842 ± 0.042 under setting [1] and 0.0129 ± 0.0036 under setting [2].

As for UCCACCGACAGCUUGCAUAGUAUUUAGUUA, the “pre-steady-state target cleavage rate” value runs as follows: under setting [1], 1.04 ± 0.043; under setting [2], 0.0616 ± 0.011.

AGGACCUACAGCUUGCAUAGAUUUUAGUAA: the “pre-steady-state target cleavage rate” value worked out at 0.216 ± 0.041 under setting [1] and 0.00448 ± 0.0025 under setting [2].

UCCACCUACAGCUUGCAUGGUAUUUAGUUA: the “pre-steady-state target cleavage rate” value reads like this: under setting [1], 1.3 ± 0.061; under setting [2], 0.0488 ± 0.01.

As for AGGACGUACAGCUAGCAUAGUAUUUAGUUA, the “pre-steady-state target cleavage rate” value runs as follows: under setting [1], 0.986 ± 0.08; under setting [2], 0.0283 ± 0.0061.

As for UCCUGGUACAUGCUUGCAUAGUAUUUAGUUA, the “pre-steady-state target cleavage rate” value under setting [1] was found to be 0.429 ± 0.026 and the “pre-steady-state target cleavage rate” value under setting [2] is 0.0479 ± 0.01.

On to AGGACCUACAGCUUGCAUUGUAUUUACUUA, for which the “pre-steady-state target cleavage rate” value runs as follows: under setting [1], 0.372 ± 0.052; under setting [2], 0.0183 ± 0.0044.

As for UCCUGGAUGUGCUUGGAUAGUAUUUAGUAA, the “pre-steady-state target cleavage rate” value by setting is: under setting [1], 0.298 ± 0.048; under setting [2], 0.0176 ± 0.0062.

As to UCCUGCUACAGCUUGCAUAGUAUUUUAGUUA, the “pre-steady-state target cleavage rate” value under setting [1] came to 0.817 ± 0.067 and the “pre-steady-state target cleavage rate” value under setting [2] was found to be 0.0107 ± 0.0028.

Consider UCCUGGAUGUCCUUGCAUAGUAUUUGAGUUA, for which the “pre-steady-state target cleavage rate” value runs as follows: under setting [1], 0.0326 ± 0.01; under setting [2], 0.00342 ± 0.0027.

With UCCUGGUACAGCUUGCUAAGUAUUUAGUAA, the “pre-steady-state target cleavage rate” value stood at 0.0498 ± 0.016 under setting [1] and 0.00416 ± 0.0022 under setting [2].

On to AGGACCUACAGGUUGCAUAGUAUUUAGAAA, for which the “pre-steady-state target cleavage rate” value runs as follows: under setting [1], 0.457 ± 0.046; under setting [2], 0.0106 ± 0.0034.

In the case of UCCUGGAUCAGCUUGCAUAGUAAUUUGUUA, the “pre-steady-state target cleavage rate” value is, setting by setting: under setting [1], 0.302 ± 0.037; under setting [2], 0.00656 ± 0.0022.

On to UCCACCUACAGCUUGCAUAGUAUUUGGUUA, for which the “pre-steady-state target cleavage rate” value is, setting by setting: under setting [1], 0.555 ± 0.038; under setting [2], 0.0358 ± 0.0079.

Take “UCCUCCUACAGCUUGCAUAGUAUUUAGUUG [g2:g26:cont:t1G]”: the “pre-steady-state target cleavage rate” value under setting [1] was 0.245 ± 0.023 and the “pre-steady-state target cleavage rate” value under setting [2] stood at 0.0275 ± 0.0047.

UCCUGGUACAGCUUGCUUAGUAUUUAGAAA: the “pre-steady-state target cleavage rate” value worked out at 0.196 ± 0.038 under setting [1] and 0.00383 ± 0.0021 under setting [2].

Consider UCCUGGAACAGCUUGCAUAGUUUUUAGUUA, for which the “pre-steady-state target cleavage rate” value amounted to 0.333 ± 0.021 under setting [1] and 0.0449 ± 0.0097 under setting [2].

Turning to UCCUGGUACAGCUUGCAUAGUAUUUAGGUA, the “pre-steady-state target cleavage rate” value is 0.0789 ± 0.017 under setting [1] and 0.0128 ± 0.0032 under setting [2].

Regarding AGGACCUACAGCUUGCUUAGUAUUUACUUA, the “pre-steady-state target cleavage rate” value is, setting by setting: under setting [1], 0.552 ± 0.046; under setting [2], 0.0641 ± 0.016.

As for UCGACCUACAGCUUGCAUAGUAUAAUGUAA, the “pre-steady-state target cleavage rate” value is 0.205 ± 0.031 under setting [1] and 0.00301 ± 0.0027 under setting [2].

For the origin of these results see the supplement of paper PMC10338343.
